# Assay results as given in PubChem BioAssay (Tox21).
# Several values for one entry are separate records, joined by “and”; a condition that tells them apart may be missing. Identical values can stand only once. Inconclusive means that the source gave no clear call. Such entries were picked first, then a sample of the others. For some of these results: Potencies beside an inconclusive call are fits to weak or partial responses and may not hold up. Some compounds were tested as several samples or in several runs, with calls that do not always agree. Activity calls are given as the source filed them. The call rests on the fitted dose curve; in most records, active means well fitted curve in the direction sought with a large enough effect in the repeat runs; inconclusive means weak or mixed curves; inactive means no such curve, though single readings can be large; an effect the other way counts as inactive or inconclusive.
# Assays:
# [1] = Human pregnane X receptor (PXR) small molecule agonists, qHTS cell viability counter screen (AID 1346977); conditions: PXR-Luc HepG2 viability, CellTiter-Fluor, 24 h; series mostly up to 92.4 µM; further: potency means the concentration at half of the fitted maximal effect; nearly all actives have a fitted effect of over 50% in size
# Procedure, shortened: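 Fluorescence read-out (CellTiter-Fluor) of viability in PXR-Luc HepG2 cells, multiplexed with the luciferase agonist read. Compounds in DMSO added after 5hr plating; 24hr total exposure at 37C, 5% CO2.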
# [2] = Caspase-3/7 induction in CHO-K1 cells by small molecules, qHTS cell viability counter screen (AID 1346979); conditions: CellTiter-Fluor fluorescence, 17 h; series mostly up to 92.4 µM; further: potency means the concentration at half of the fitted maximal effect; nearly all actives have a fitted effect of over 35% in size
# Procedure, shortened: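 CHO-K1 wt, 1,500 cells/well; 5hr pre-incubation 37C/5% CO2; compound pin transfer (DMSO); 16hr exposure; CellTiter-Fluor added, 1hr, fluorescence read.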
# [3] = Caspase-3/7 induction in HepG2 cells by small molecules, qHTS cell viability counter screen (AID 1346981); conditions: CellTiter-Fluor fluorescence, 17 h; series mostly up to 92.4 µM; further: potency means the concentration at half of the fitted maximal effect; nearly all actives have a fitted effect of over 30% in size
# Procedure, shortened: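 HepG2, WT, 2,000 cells/well; 5 hr pre-incubation 37 C/5% CO2; compound pin-transferred from DMSO; 16 hr exposure; CellTiter-Fluor, 1 hr; fluorescence read.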
# [4] = biological target: Cytochrome P450 1A2 (Homo sapiens) (UniProt P05177); test: Cytochrome P450 Family 1 Subfamily A Member 2 (CYP1A2) small molecule antagonists: luciferase reporter qHTS assay (AID 1671199); conditions: P450-Glo CYP1A2 enzyme, luciferin luminescence, 1 h; series mostly up to 115 µM; further: nearly all actives have a fitted effect of over 50% in size; further: potency means the concentration at half of the fitted maximal effect
# Procedure, shortened: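 P450-Glo CYP1A2, 1536-well qHTS: enzyme/proluciferin substrate + cpd (DMSO), 10 min RT; NADPH regen, 1 h RT; detection reagent, 20 min; luminescence, RLU.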
# [5] = biological target: Voltage-gated inwardly rectifying potassium channel KCNH2 (Homo sapiens) (UniProt Q12809); test: Human Ether-a-go-go-Related Gene (hERG) channel small molecule antagonists: fluorescence cell-based qHTS assay (AID 1671200); conditions: hERG-U2OS cells, FluxOR thallium flux fluorescence; series mostly up to 76.8 µM; further: potency means the concentration at half of the fitted maximal effect; nearly all actives have a fitted effect of over 50% in size
# Procedure, shortened: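 Read-out: thallium influx as a surrogate for potassium, tracked as fluorescence (480 nm ex/540 nm em) every second for 2 min after Stimulus Buffer addition in dye-loaded hERG-U2OS cells.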
# [6] = biological target: Cytochrome P450 2D6 (Homo sapiens) (UniProt P10635); test: Cytochrome P450 Family 2 Subfamily D Member 6 (CYP2D6) small molecule antagonists: luciferase reporter qHTS assay (AID 1671196); conditions: P450-Glo CYP2D6 enzyme assay, luciferin luminescence, 1 h; series mostly up to 115 µM; further: potency means the concentration at half of the fitted maximal effect; nearly all actives have a fitted effect of over 50% in size
# Procedure, shortened: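 Read-out is luminescence from luciferin formed by CYP2D6 turnover of a proluciferin substrate, recorded as relative luminescence units. Reactions ran 1 h at room temperature after NADPH regeneration solution was added.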
# [7] = biological target: Nuclear receptor subfamily 1 group I member 2 (Homo sapiens) (UniProt O75469); test: Human pregnane X receptor (PXR) small molecule agonists, qHTS assay (AID 1346982); conditions: PXR-Luc HepG2, CYP3A4 luciferase reporter, 24 h; series mostly up to 92.4 µM; further: potency means the concentration at half of the fitted maximal effect; nearly all actives have a fitted effect of over 35% in size
# Procedure, shortened: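 Luciferase signal from ONE-Glo (30 min, room temperature) measured activation of hPXR-driven CYP3A4 reporter expression in PXR-Luc HepG2 cells treated with compounds for 24 hr at 37 C.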
# [8] = biological target: Cytochrome P450 2C19 (Homo sapiens) (UniProt P33261); test: Cytochrome P450 Family 2 Subfamily C Member 19 (CYP2C19) small molecule antagonists: luciferase reporter qHTS assay (AID 1671197); conditions: P450-Glo CYP2C19 enzyme, luciferin luminescence, 1 h; series mostly up to 115 µM; further: potency means the concentration at half of the fitted maximal effect; nearly all actives have a fitted effect of over 65% in size
# Procedure, shortened: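 CYP2C19 P450-Glo, 1536-well qHTS. Cpd + enzyme/proluciferin substrate 10 min RT; + NADPH regen, 37C 1 h; stop with luciferin detection reagent, 20 min RT, luminescence (RLU). Pos ctrl ketoconazole.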
# [9] = biological target: Cytochrome P450 2C9 (Homo sapiens) (UniProt P11712); test: Cytochrome P450 Family 2 Subfamily C Member 9 (CYP2C9) small molecule antagonists: luciferase reporter qHTS assay (AID 1671198); conditions: P450-Glo CYP2C9 enzyme assay, luciferin luminescence; series mostly up to 115 µM; further: nearly all actives have a fitted effect of over 50% in size; further: potency means the concentration at half of the fitted maximal effect
# Procedure, shortened: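 P450-Glo proluciferin substrate with CYP2C9 enzyme; 10 min RT preincubation, then NADPH regeneration 1 h at 37C; luciferin detection reagent 20 min RT, luminescence in relative luminescence units.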
# [10] = Caspase-3/7 induction in CHO-K1 cells by small molecules, qHTS assay (AID 1346980); conditions: CHO-K1 caspase-3/7 induction, Caspase-Glo luminescence, 17 h; series mostly up to 92.4 µM; further: potency means the concentration at half of the fitted maximal effect; nearly all actives have a fitted effect of over 15% in size
# Procedure, shortened: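 Wild-type CHO-K1 cells exposed to compounds for 17hr at 37 C, 5% CO2. Caspase-3/7 activity then measured by Caspase-Glo 3/7 luminescence after 30min at room temperature.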
# [11] = biological target: Cytochrome P450 3A4 (Homo sapiens) (UniProt P08684); test: Cytochrome P450 Family 3 Subfamily A Member 4 (CYP3A4) small molecule antagonists: luciferase reporter qHTS assay (AID 1671201); conditions: P450-Glo CYP3A4 enzyme, luciferin luminescence, 1 h; series mostly up to 115 µM; further: nearly all actives have a fitted effect of over 50% in size
# Procedure, shortened: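 Luminescent readout (RLU) proportional to CYP3A4 activity, from luciferin generated off a proluciferin substrate. Enzyme–substrate mix plus compound 10 min at room temp, NADPH regeneration 1 h, detection reagent 20 min.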
# [12] = biological target: Nuclear receptor subfamily 1 group I member 2 (Homo sapiens) (UniProt O75469); test: Human pregnane X receptor (PXR) activation by small molecules, qHTS assay (AID 1346985); conditions: DPX-2 HepG2 CYP3A4-luciferase, 24 h; series mostly up to 38.3 µM; further: potency means the concentration at half of the fitted maximal effect; nearly all actives have a fitted effect of over 40% in size
# Procedure, shortened: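 DPX-2 cells (HepG2 co-transfected with a PXR response element and a CYP3A4-promoter luciferase construct) were seeded at 2,000 per well, rested 5 hr at 37C, then exposed to DMSO-dissolved compounds for 24 hr. Activation was read as luciferase luminescence.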
# [13] = biological target: Nuclear receptor subfamily 1 group I member 2 (Rattus norvegicus) (UniProt Q9R1A7); test: Rat pregnane X receptor (rPXR) activation by small molecules, qHTS assay (AID 1346983); conditions: rPXR luciferase reporter cells, One-Glo luminescence, 24 h; max activation: stronger effect = higher value; further: potency means the concentration at half of the fitted maximal effect; nearly all actives have a fitted effect of over 20% in size
# Procedure, shortened: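 Cell-based rPXR activation assay: rPXR cells, 2,000 per well, rested 5hr at 37 C, then exposed to compounds in DMSO for 24 hr at 37 C. Luciferase activity read by One-Glo luminescence after 30 min at room temperature.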
# Tags describe the fitted curve by direction and shape.
# UniProt Q12809, sequence (Q12809 whole entry, looked up): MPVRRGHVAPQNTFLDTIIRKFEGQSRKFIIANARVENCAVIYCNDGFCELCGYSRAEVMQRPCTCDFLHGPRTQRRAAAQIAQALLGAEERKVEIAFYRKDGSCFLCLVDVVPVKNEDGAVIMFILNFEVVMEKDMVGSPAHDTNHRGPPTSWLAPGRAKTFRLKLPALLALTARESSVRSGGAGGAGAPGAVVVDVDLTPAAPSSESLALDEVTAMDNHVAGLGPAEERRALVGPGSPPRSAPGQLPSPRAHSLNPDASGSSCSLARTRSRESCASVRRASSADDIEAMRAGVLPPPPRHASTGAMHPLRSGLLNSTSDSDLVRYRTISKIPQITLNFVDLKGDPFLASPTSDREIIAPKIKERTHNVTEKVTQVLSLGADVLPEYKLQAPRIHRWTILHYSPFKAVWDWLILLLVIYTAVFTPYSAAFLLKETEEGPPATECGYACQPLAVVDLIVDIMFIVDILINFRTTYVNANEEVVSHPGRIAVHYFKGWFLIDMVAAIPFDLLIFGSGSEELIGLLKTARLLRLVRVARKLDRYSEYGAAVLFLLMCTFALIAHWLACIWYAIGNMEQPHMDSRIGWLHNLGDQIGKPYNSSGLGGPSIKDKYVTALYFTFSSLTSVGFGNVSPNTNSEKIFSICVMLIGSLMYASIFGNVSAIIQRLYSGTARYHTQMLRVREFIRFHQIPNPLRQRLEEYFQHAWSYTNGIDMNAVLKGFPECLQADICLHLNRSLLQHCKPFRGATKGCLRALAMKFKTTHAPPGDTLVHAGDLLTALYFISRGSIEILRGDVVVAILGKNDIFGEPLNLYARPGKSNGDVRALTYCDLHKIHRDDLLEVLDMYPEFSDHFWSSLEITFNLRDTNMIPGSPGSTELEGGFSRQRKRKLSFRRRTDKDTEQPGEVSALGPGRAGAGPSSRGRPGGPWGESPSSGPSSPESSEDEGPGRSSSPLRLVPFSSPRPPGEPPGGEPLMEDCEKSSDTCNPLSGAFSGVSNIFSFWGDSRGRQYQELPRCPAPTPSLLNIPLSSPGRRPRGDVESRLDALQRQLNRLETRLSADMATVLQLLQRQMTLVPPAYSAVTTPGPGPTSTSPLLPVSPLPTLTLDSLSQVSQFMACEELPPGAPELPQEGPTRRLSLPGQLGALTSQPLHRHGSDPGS
# UniProt P10635, sequence (P10635 whole entry, looked up): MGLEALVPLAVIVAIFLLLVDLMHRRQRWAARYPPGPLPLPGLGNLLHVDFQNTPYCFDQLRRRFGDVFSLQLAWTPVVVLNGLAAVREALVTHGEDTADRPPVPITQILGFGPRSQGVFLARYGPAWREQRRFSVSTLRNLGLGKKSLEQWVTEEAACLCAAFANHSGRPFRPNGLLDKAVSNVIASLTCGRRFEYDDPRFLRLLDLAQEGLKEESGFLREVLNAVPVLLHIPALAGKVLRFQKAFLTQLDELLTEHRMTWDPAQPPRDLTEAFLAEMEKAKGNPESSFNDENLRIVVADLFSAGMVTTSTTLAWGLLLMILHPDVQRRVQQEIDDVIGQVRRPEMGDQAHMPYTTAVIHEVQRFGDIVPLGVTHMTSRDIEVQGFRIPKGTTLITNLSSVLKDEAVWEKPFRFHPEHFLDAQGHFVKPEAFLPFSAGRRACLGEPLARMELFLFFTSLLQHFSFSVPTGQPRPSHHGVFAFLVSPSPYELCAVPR
# UniProt P05177, sequence (P05177 whole entry, looked up): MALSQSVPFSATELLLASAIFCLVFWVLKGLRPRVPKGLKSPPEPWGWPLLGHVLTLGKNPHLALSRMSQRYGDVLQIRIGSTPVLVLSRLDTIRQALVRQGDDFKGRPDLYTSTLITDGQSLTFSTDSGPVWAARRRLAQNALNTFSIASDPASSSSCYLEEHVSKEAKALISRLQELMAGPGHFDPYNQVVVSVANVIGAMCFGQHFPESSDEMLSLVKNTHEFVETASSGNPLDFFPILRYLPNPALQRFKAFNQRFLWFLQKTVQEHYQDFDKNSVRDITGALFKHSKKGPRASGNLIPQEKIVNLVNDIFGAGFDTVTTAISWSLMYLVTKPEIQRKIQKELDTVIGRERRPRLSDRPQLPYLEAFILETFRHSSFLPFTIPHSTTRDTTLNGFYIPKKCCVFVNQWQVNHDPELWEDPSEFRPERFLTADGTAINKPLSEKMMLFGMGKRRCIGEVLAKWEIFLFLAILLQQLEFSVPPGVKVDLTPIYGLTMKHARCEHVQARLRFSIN
# UniProt P11712, sequence (P11712 whole entry, looked up): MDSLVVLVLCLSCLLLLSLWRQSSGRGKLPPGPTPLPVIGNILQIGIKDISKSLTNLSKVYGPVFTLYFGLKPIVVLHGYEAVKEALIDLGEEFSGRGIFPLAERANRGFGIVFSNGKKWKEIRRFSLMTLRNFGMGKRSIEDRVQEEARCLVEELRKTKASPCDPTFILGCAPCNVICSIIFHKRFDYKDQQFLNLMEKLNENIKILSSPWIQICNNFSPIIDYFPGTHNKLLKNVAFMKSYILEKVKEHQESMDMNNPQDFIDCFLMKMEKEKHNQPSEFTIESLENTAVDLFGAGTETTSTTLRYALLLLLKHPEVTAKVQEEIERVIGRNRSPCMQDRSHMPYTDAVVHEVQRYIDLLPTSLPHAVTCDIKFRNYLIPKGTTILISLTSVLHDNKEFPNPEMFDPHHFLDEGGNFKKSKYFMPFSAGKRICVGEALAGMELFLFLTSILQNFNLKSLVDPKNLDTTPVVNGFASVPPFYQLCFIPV
# UniProt P33261, sequence (P33261 whole entry, looked up): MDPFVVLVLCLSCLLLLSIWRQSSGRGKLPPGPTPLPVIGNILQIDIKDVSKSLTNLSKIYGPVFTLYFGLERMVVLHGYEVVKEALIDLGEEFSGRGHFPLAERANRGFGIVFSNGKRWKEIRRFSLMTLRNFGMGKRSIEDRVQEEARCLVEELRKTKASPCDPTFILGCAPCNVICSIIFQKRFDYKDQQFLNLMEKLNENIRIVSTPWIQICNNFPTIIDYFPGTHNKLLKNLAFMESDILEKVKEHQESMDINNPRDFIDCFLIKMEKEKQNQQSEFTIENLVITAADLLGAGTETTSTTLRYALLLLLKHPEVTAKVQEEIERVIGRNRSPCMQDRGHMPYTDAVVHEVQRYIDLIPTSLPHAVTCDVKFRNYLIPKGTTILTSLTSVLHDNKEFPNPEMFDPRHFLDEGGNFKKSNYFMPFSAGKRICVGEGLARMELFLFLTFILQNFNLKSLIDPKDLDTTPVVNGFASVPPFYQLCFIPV
# UniProt P08684, sequence (P08684 whole entry, looked up): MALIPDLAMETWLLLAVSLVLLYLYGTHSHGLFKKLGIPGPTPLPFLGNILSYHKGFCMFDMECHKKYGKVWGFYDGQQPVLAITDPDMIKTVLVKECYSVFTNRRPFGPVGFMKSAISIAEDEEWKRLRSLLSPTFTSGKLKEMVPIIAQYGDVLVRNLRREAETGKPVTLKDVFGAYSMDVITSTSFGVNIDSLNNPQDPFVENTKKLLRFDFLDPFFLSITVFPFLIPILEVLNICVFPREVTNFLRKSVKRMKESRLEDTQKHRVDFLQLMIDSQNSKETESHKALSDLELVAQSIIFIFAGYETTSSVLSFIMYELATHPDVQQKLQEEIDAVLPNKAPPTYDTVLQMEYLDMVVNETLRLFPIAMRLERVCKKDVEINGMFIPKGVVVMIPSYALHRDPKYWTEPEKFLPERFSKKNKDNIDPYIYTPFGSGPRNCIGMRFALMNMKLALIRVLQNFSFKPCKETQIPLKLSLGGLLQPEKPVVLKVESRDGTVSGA
# UniProt Q9R1A7, sequence (Q9R1A7 whole entry, looked up): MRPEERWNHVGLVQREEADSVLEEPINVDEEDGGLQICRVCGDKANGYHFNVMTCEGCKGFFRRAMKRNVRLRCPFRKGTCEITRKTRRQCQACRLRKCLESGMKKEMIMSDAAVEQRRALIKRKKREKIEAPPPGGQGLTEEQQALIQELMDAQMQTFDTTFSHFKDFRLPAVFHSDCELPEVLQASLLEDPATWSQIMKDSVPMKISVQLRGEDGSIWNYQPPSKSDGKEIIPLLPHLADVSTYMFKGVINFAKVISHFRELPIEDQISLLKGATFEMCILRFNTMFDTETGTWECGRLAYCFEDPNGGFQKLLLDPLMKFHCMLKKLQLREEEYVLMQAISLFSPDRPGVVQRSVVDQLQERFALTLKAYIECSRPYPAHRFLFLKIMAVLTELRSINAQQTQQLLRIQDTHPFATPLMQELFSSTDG
compound,measurement,setting,value
Oc1ccc(C(c2ccc(O)cc2)C(Cl)(Cl)Cl)cc1,Potency,[1],"inconclusive: 68.6 µM [cytotoxic, single point]"
same,Potency,[2],"inconclusive: 68.3 µM [cytotoxic, single point] and active: 54.5 µM"
same,Potency,[3],"inconclusive: 68.3 µM [cytotoxic, single point] and inconclusive: 68.6 µM [cytotoxic, single point]"
same,Potency,[4],"inconclusive: 79.6 µM [inhibitor, partial curve, poor fit]"
same,Potency,[5],"inconclusive: 43.6 µM [inhibitor, partial curve, poor fit]"
O=C1OC(c2ccc(O)cc2)(c2ccc(O)cc2)c2ccccc21,Potency,[1],active: 50.1 µM
same,Potency,[2],"active: 30.4 µM and inconclusive: 77 µM [cytotoxic, partial curve, poor fit]"
same,Potency,[6],"inconclusive: 62.8 µM [inhibitor, partial curve, poor fit]"
same,Potency,[5],"inconclusive: 19 µM [inhibitor, partial curve]"
O=C(O)Cn1c(=O)n(Cc2ccc(Br)cc2F)c(=O)c2ccc(Cl)cc21,Potency,[1],"inconclusive: 68.6 µM [cytotoxic, single point]"
same,Potency,[3],"inconclusive: 61.1 µM [cytotoxic, single point] and inconclusive: 33.5 µM [cytotoxic]"
same,Potency,[7],"inconclusive: 27.3 µM [activator, partial curve] and inconclusive: 33.5 µM [activator, partial curve, poor fit]"
same,Potency,[6],"inconclusive: 25.2 µM [inhibitor, partial curve]"
same,Potency,[8],"inconclusive: 89.4 µM [inhibitor, single point]"
Nc1nc2ccc([N+](=O)[O-])cc2s1,Potency,[1],"inconclusive: 44.7 µM [cytotoxic, partial curve]"
same,Potency,[3],active: 61.1 µM
same,Potency,[6],inconclusive: 50.2 µM [inhibitor]
same,Potency,[9],"inconclusive: 58 µM [inhibitor, partial curve]"
same,Potency,[4],active: 9.74 µM
C[C@]12C=CC(=O)C=C1CC[C@@H]1[C@@H]2C(=O)C[C@@]2(C)[C@H]1CC[C@]2(O)C(=O)CO,Potency,[1],"inconclusive: 68.6 µM [rising, partial curve, poor fit]"
same,Potency,[3],"inconclusive: 38.7 µM [rising, partial curve, poor fit]"
NC(N)=NN=C(/C=C/c1ccc([N+](=O)[O-])o1)/C=C/c1ccc([N+](=O)[O-])o1,Potency,[1],active: 6.68 µM
same,Potency,[10],inconclusive: 2.11 µM [activator]
same,Potency,[4],"inconclusive: 14.4 µM [inhibitor, full curve]"
COc1cccc(O)c1O,Potency,[1],"inconclusive: 63.5 µM [cytotoxic, partial curve, poor fit]"
same,Potency,[3],"inconclusive: 71.2 µM [cytotoxic, single point]"
same,Potency,[7],active: 25.3 µM
same,Potency,[6],"inconclusive: 82.8 µM [inhibitor, partial curve, poor fit]"
same,Potency,[9],inactive
same,Potency,[4],"inconclusive: 65.8 µM [inhibitor, partial curve]"
same,Potency,[11],inactive
CC#C[C@]1(O)CC[C@H]2[C@@H]3CCC4=CC(=O)CCC4=C3[C@@H](c3ccc(N(C)C)cc3)C[C@@]21C,Potency,[1],"inconclusive: 27.3 µM [cytotoxic, full curve]"
same,Potency,[3],"active: 30.6 µM and inconclusive: 29.8 µM [cytotoxic, single point]"
same,Potency,[12],"inconclusive: 1.58 µM [activator, full curve, poor fit]"
same,Potency,[6],active: 63.3 µM and active: 38.9 µM
same,Potency,[4],"inconclusive: 31.7 µM [inhibitor, partial curve] and inactive"
CCOC(=O)[C@H](CCc1ccccc1)N[C@H]1CCc2ccccc2N(CC(=O)O)C1=O,Potency,[1],active: 26.6 µM
same,Potency,[3],"inconclusive: 33.5 µM [cytotoxic, single point]"
same,Potency,[13],"inconclusive: 22.4 µM [activator, partial curve]"
same,Potency,[12],"inconclusive: 15.8 µM [activator, partial curve, poor fit]"
same,Potency,[6],"inconclusive: 27.5 µM [inhibitor, partial curve, poor fit]"
CCCCCCOC(=O)NC(=N)c1ccc(NCc2nc3cc(C(=O)N(CCC(=O)OCC)c4ccccn4)ccc3n2C)cc1,Potency,[1],"inconclusive: 23.7 µM [cytotoxic, partial curve]"
same,Potency,[3],"inconclusive: 29.8 µM [cytotoxic, partial curve, poor fit]"
same,Potency,[6],"inconclusive: 30.9 µM [inhibitor, partial curve]"
same,Potency,[8],active: 2.19 µM
same,Potency,[5],active: 0.601 µM
